These results are taken from publication PMC13040083, “Single-molecule dynamics reveal ATP binding alone powers substrate translocation by an ABC transporter” (Nature Communications, 2026).

The target in this experiment is OppA (AF555/AF647-labeled LlOppA A209C/S441C) (Lactococcus lactis subsp. lactis, UniProt Q07741, A231C/S463C).

In turn, `CC(C)C[C@H](NC(=O)[C@H](CCC(=O)O)NC(=O)[C@@H](NC(=O)[C@H](CO)NC(=O)[C@H](CCCCN)NC(=O)[C@H](CCC(N)=O)NC(=O)[C@H](Cc1ccc(O)cc1)NC(=O)[C@H](CCCNC(=N)N)NC(=O)[C@@H](N)CCCNC(=N)N)[C@@H](C)O)C(=O)O` displayed a Kd of 200 to 900 nM.
